Reference: US20260242416A1, “ANTIMICROBIAL PEPTIDES” (priority 2023, published 2026)
Some of these results come from one statement about several compounds together. Where a SMILES comes first, the peptide text is derived from it.

Tested on: E. coli ATCC 25922, Salmonella Enteritidis, S. aureus ATCC 29213
Experiment: Broth microdilution, panel result (at least one / all strains), Example 2
Format: cell-based
Conditions: at least one of E. coli ATCC 25922, Salmonella Enteritidis, or S. aureus ATCC 29213
Procedure: The antimicrobial activity of the putative AMPs was determined by a broth microdilution assay as described by the Clinical and Laboratory Standards Institute, with the published adaptations for testing of cationic peptides. Escherichia coli 25922 and Staphylococcus aureus 29213 isolates were purchased from the American Type Culture Collection (ATCC; Manassas, VA, USA). A human clinical isolate of Salmonella enterica serovar Enteritidis was provided by the BC Centre for Disease Control. Bacteria from stocks stored at −80° C. were streaked onto nonselective Columbia blood agar with 5% sheep blood (Oxoid) and incubated overnight at 37° C. Next, 2-4 colonies were streaked onto a new agar plate to ensure uniform health of colonies used in the broth microdilution assay. Isolated colonies were suspended in MHB and the optical density was measured with a spectrophotometer to create an initial inoculum concentration of approximately 1×10^8 cfu/mL. The inoculum was diluted 1:250 to a final concentration of 2-8×10^5 cfu/mL, which was confirmed by performing a Total Viability Count (TVC). The TVC consisted of plating a 1:1000 dilution of the final inoculum on nonselective media and was also used to confirm the health and purity of the inoculum in each trial.
Lyophilized 80 μg peptide aliquots synthesized by GenScript (Piscataway, NJ, USA) were resuspended to 1.28 mg/mL with UltraPure water (Thermo Fisher Scientific, Waltham, MA, USA) and serially diluted in polypropylene 96-well microtiter plates (Greiner Bio-One #650261, Kremsmunster, Austria) from 128 down to 0.5 μg/mL. Two columns per plate were reserved for growth and sterility controls. Inoculum was added to the wells containing the peptide and the growth control. Plates were incubated for 20-24 h at 37° C. The minimum inhibitory concentration (MIC) was determined as the lowest peptide concentration where there was no visible bacterial growth.

Compound	concentration exhibiting inhibitory activity against at least one strain
CC[C@H](C)[C@H](NC(=O)CN)C(=O)N[C@@H](CC(C)C)C(=O)N[C@@H](CO)C(=O)NCC(=O)N[C@@H](CC(C)C)C(=O)N[C@@H](CC(C)C)C(=O)NCC(=O)N[C@@H](C)C(=O)NCC(=O)N[C@@H](CCCCN)C(=O)N[C@@H](CCCCN)C(=O)N[C@H](C(=O)N[C@H](C(=O)N[C@@H](CS)C(=O)NCC(=O)N[C@@H](CC(C)C)C(=O)N[C@@H](CO)C(=O)NCC(=O)N[C@@H](CCSC)C(=O)N[C@@H](CS)C(=O)O)C(C)C)[C@@H](C)CC [RaOm2] (H-GILSGLLGAGKKIVCGLSGMC-OH; N-terminus and C-terminus assumed)	lower than 128 ug/mL
CC[C@H](C)[C@H](NC(=O)CN)C(=O)N[C@@H](Cc1ccccc1)C(=O)N[C@@H](CO)C(=O)N[C@@H](CC(C)C)C(=O)N[C@H](C(=O)N[C@@H](CCCCN)C(=O)NCC(=O)N[C@@H](C)C(=O)N[C@@H](C)C(=O)N[C@@H](CCCCN)C(=O)N[C@H](C(=O)N[C@H](C(=O)N[C@@H](C)C(=O)N[C@@H](CCCCN)C(=O)NCC(=O)N[C@@H](CC(C)C)C(=O)NCC(=O)O)C(C)C)C(C)C)[C@@H](C)CC [PeNi3] (H-GIFSLIKGAAKVVAKGLG-OH; N-terminus and C-terminus assumed)	lower than 128 ug/mL
CC(C)C[C@H](NC(=O)CNC(=O)[C@H](CO)NC(=O)[C@H](CC(C)C)NC(=O)CNC(=O)[C@H](CS)NC(=O)[C@H](CC(C)C)NC(=O)[C@@H](NC(=O)[C@H](CCCCN)NC(=O)[C@H](CCCCN)NC(=O)CNC(=O)[C@@H](NC(=O)CNC(=O)[C@H](CC(C)C)NC(=O)[C@@H](NC(=O)CNC(=O)[C@H](CO)NC(=O)[C@H](CC(C)C)NC(=O)[C@H](CC(C)C)NC(=O)CN)C(C)C)C(C)C)C(C)C)C(=O)N[C@@H](CS)C(=O)O [OdMa7] (H-GLLSGVLGVGKKVLCGLSGLC-OH; N-terminus and C-terminus assumed)	lower than 128 ug/mL
CC(C)C[C@H](NC(=O)CN)C(=O)N[C@@H](CC(C)C)C(=O)NCC(=O)N[C@@H](CCCCN)C(=O)N[C@H](C(=O)N[C@@H](CC(C)C)C(=O)NCC(=O)N[C@H](C(=O)NCC(=O)N[C@@H](CCCCN)C(=O)N[C@@H](CCCCN)C(=O)N[C@H](C(=O)N[C@@H](CC(C)C)C(=O)N[C@@H](CS)C(=O)NCC(=O)N[C@H](C(=O)N[C@@H](CO)C(=O)NCC(=O)N[C@@H](CCCNC(=N)N)C(=O)N[C@@H](CS)C(=O)O)C(C)C)C(C)C)C(C)C)C(C)C [RaOm4] (H-GLLGKVLGVGKKVLCGVSGRC-OH; N-terminus and C-terminus assumed)	lower than 128 ug/mL
CC[C@H](C)[C@H](NC(=O)[C@H](CCCCN)NC(=O)[C@H](CS)NC(=O)[C@H](Cc1ccccc1)NC(=O)[C@H](CCCCN)NC(=O)[C@H](CCCNC(=N)N)NC(=O)[C@H](CO)NC(=O)[C@H](Cc1ccc(O)cc1)NC(=O)CNC(=O)[C@H](CS)NC(=O)[C@@H]1CCCN1C(=O)[C@H](C)NC(=O)[C@@H](NC(=O)[C@H](C)NC(=O)[C@H](Cc1ccccc1)NC(=O)[C@H](Cc1ccccc1)NC(=O)[C@H](Cc1ccccc1)NC(=O)[C@H](CCCNC(=N)N)NC(=O)[C@@H](N)CCCNC(=N)N)[C@@H](C)O)C(=O)N[C@H](C(=O)N[C@@H](CCCNC(=N)N)C(=O)N[C@@H](CCCNC(=N)N)C(=O)N[C@@H](CCCCN)C(=O)N[C@@H](CCCNC(=N)N)C(=O)O)[C@@H](C)O [CaCa4] (H-RRFFFATAPCGYSRKFCKITRRKR-OH; N-terminus and C-terminus assumed)	lower than 128 ug/mL
CC[C@H](C)[C@H](NC(=O)[C@H](CC(=O)O)NC(=O)[C@H](CC(C)C)NC(=O)[C@H](Cc1c[nH]c2ccccc12)NC(=O)CN)C(=O)N[C@@H](C)C(=O)N[C@@H](CCCCN)C(=O)N[C@@H](CCCCN)C(=O)N[C@H](C(=O)N[C@@H](C)C(=O)N[C@@H](CO)C(=O)N[C@H](C(=O)N[C@H](C(=O)N[C@@H](C)C(=O)NCC(=O)N[C@@H](CC(C)C)C(=O)NCC(=O)N[C@@H](CCCCN)C(=O)N[C@@H](CCCNC(=N)N)C(=O)O)C(C)C)C(C)C)C(C)C [LiVe2] (H-GWLDIAKKVASVVAGLGKR-OH; N-terminus and C-terminus assumed)	lower than 128 ug/mL
CC[C@H](C)[C@H](NC(=O)CNC(=O)[C@H](C)NC(=O)[C@@H](NC(=O)[C@@H](NC(=O)[C@H](CO)NC(=O)[C@H](C)NC(=O)[C@@H](NC(=O)[C@H](CCCCN)NC(=O)[C@H](CCCCN)NC(=O)[C@H](C)NC(=O)[C@@H](NC(=O)[C@H](CC(=O)O)NC(=O)[C@H](CC(C)C)NC(=O)[C@H](Cc1c[nH]c2ccccc12)NC(=O)CN)[C@@H](C)CC)C(C)C)C(C)C)C(C)C)C(=O)N[C@H](C(=O)N[C@@H](CCCCN)C(=O)N[C@@H](CCCNC(=N)N)C(=O)O)C(C)C [LiVe1] (H-GWLDIAKKVASVVAGIVKR-OH; N-terminus and C-terminus assumed)	lower than 128 ug/mL
CC[C@H](C)[C@H](NC(=O)[C@H](CCCCN)NC(=O)[C@H](CS)NC(=O)[C@H](CCCCN)NC(=O)[C@H](CC(C)C)NC(=O)[C@H](CC(N)=O)NC(=O)[C@H](Cc1ccc(O)cc1)NC(=O)[C@H](CC(C)C)NC(=O)[C@H](CC(C)C)NC(=O)[C@@H](NC(=O)[C@@H](NC(=O)[C@H](C)NC(=O)[C@@H](NC(=O)[C@H](CC(N)=O)NC(=O)[C@H](CCCCN)NC(=O)[C@H](C)NC(=O)[C@@H](NC(=O)[C@H](CC(N)=O)NC(=O)[C@H](CCCCN)NC(=O)[C@H](C)NC(=O)[C@@H](NC(=O)[C@H](CC(=O)O)NC(=O)[C@H](CCSC)NC(=O)[C@H](Cc1ccccc1)NC(=O)CN)[C@@H](C)O)C(C)C)C(C)C)C(C)C)[C@@H](C)O)C(=O)N[C@H](C(=O)N[C@@H](CCCCN)C(=O)N[C@@H](C)C(=O)N[C@@H](CS)C(=O)O)[C@@H](C)O [OdMa12] (H-GFMDTAKNVAKNVAVTLLYNLKCKITKAC-OH; N-terminus and C-terminus assumed)	lower than 128 ug/mL
CC[C@H](C)[C@H](NC(=O)CN)C(=O)N[C@@H](CC(C)C)C(=O)N[C@@H](CC(C)C)C(=O)N[C@@H](CC(N)=O)C(=O)N[C@H](C(=O)N[C@@H](CC(C)C)C(=O)N[C@@H](CCCCN)C(=O)NCC(=O)N[C@@H](C)C(=O)N[C@@H](C)C(=O)N[C@@H](CCCCN)C(=O)N[C@@H](CC(N)=O)C(=O)N[C@H](C(=O)N[C@@H](C)C(=O)NCC(=O)N[C@H](C(=O)N[C@@H](CC(C)C)C(=O)N[C@@H](CC(C)C)C(=O)N[C@@H](CC(=O)O)C(=O)N[C@@H](CCCCN)C(=O)N[C@@H](CC(C)C)C(=O)N[C@@H](CCCCN)C(=O)N[C@@H](CS)C(=O)N[C@@H](CCCCN)C(=O)N[C@H](C(=O)N[C@H](C(=O)NCC(=O)NCC(=O)N[C@@H](CS)C(=O)O)[C@@H](C)O)[C@@H](C)CC)C(C)C)C(C)C)[C@@H](C)O [PeNi8] (H-GILLNTLKGAAKNVAGVLLDKLKCKITGGC-OH; N-terminus and C-terminus assumed)	lower than 128 ug/mL
SRSPSKSCKASRKLKSKSPRPR [SEQ ID NO: 709]	lower than 128 ug/mL
CC[C@H](C)[C@H](NC(=O)CN)C(=O)N[C@@H](CC(C)C)C(=O)N[C@@H](CO)C(=O)NCC(=O)N[C@@H](CC(C)C)C(=O)N[C@@H](CC(C)C)C(=O)NCC(=O)N[C@@H](C)C(=O)NCC(=O)N[C@@H](CCCCN)C(=O)N[C@@H](CCCCN)C(=O)N[C@H](C(=O)N[C@H](C(=O)N[C@@H](CS)C(=O)NCC(=O)N[C@@H](CC(C)C)C(=O)N[C@@H](CO)C(=O)NCC(=O)N[C@@H](CC(C)C)C(=O)N[C@@H](CS)C(=O)O)C(C)C)[C@@H](C)CC [OdMa5] (H-GILSGLLGAGKKIVCGLSGLC-OH; N-terminus and C-terminus assumed)	lower than 128 ug/mL
CC(C)C[C@H](NC(=O)CN)C(=O)N[C@@H](CC(C)C)C(=O)NCC(=O)N[C@@H](CCCCN)C(=O)N[C@H](C(=O)N[C@@H](CC(C)C)C(=O)NCC(=O)N[C@H](C(=O)NCC(=O)N[C@@H](CCCCN)C(=O)N[C@@H](CCCCN)C(=O)N[C@H](C(=O)N[C@@H](CC(C)C)C(=O)N[C@@H](CS)C(=O)NCC(=O)N[C@H](C(=O)N[C@H](C(=O)NCC(=O)N[C@@H](CCCNC(=N)N)C(=O)N[C@@H](CCC(=O)O)C(=O)N[C@@H](CCCNC(=N)N)C(=O)N[C@@H](CS)C(=O)N[C@@H](CCC(N)=O)C(=O)O)[C@@H](C)O)C(C)C)C(C)C)C(C)C)C(C)C [PeNi5] (H-GLLGKVLGVGKKVLCGVTGRERCQ-OH; N-terminus and C-terminus assumed)	lower than 128 ug/mL
